Reference: the supplement of paper PMC6135742
Structures can show the parent of a compound that is named as a salt. ± gives the standard deviation of the averaged measurements. The full ranking holds about 2,600 compounds; the median of “total cell number (DAPI+ nuclei) relative to DMSO vehicle control” is about -1.4, and the lowest 2% start at about -23. The list shows a part of the results.

The compounds below were run on jimpy (Plp1 jimpy) mouse iPSC-derived oligodendrocyte progenitor cells (assay: total cell number (DAPI+ nuclei) relative to DMSO vehicle control (SDs above negative control mean); higher = more surviving cells). Conditions: 10 µM; 3 days.
Method: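 Primary phenotypic screen of >3,000 bioactive compounds (Selleck L1700 and Sigma LO1280 libraries) at a single dose of 10 µM. Compounds were added to jimpy (Plp1 mutant) mouse iPSC-derived OPCs at the start of thyroid hormone-induced oligodendrocyte differentiation, one well per compound in 384-well plates. After 3 days cells were stained for MBP, Sox10 and DAPI and imaged with an Operetta system. MBP+ oligodendrocyte number and total cell number were expressed as the number of SDs above the mean of the DMSO negative control on the same plate (n=16 control wells per plate). Hits were defined as >=4 SD for oligodendrocytes and >=2 SD for total cells.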

Row | SMILES | total cell number
1 | CC(C)NC[C@H](O)c1ccc(O)c(O)c1 [R(-)-Isoproterenol (+)-bitartrate] | -1.51
2 | COC[C@H](NC(=O)c1cnc(C)s1)C(=O)N[C@@H](COC)C(=O)N[C@@H](Cc1ccccc1)C(=O)[C@@]1(C)CO1 [Oprozomib (ONX 0912)] | -12.7
3 | NCCS(=O)O [Hypotaurine] | -1.25
4 | N[C@@H](C(=O)N[C@@H]1C(=O)N2C(C(=O)O)=C(Cl)CS[C@H]12)c1ccccc1 [Cefaclor] | -0.554
5 | CCN(c1cc(-c2ccc(CN3CCOCC3)cc2)cc(C(=O)NCc2c(C)cc(C)[nH]c2=O)c1C)C1CCOCC1 | 2.45
6 | Cn1c([N+](=O)[O-])cnc1COC(N)=O [Ronidazole] | 1.61
7 | O=C(O)CC1CC(c2ccccc2)=NO1 (stereo not drawn) | -1.37
8 | CN(C)[C@@H]1C(O)=C(C(N)=O)C(=O)[C@@]2(O)C(O)=C3C(=O)c4c(O)ccc(Cl)c4[C@@H](O)[C@H]3C[C@@H]12 [Demeclocycline hydrochloride] | -4.15
9 | CCOC(=O)c1c(C)n(C)c2ccc(O)cc12 [Mecarbinate] | -4.47
10 | COc1ccc(C[C@@H]2c3cc(OC)c(OC)cc3CC[N@+]2(C)CCC(=O)OCCCCCOC(=O)CC[N@@+]2(C)CCc3cc(OC)c(OC)cc3[C@H]2Cc2ccc(OC)c(OC)c2)cc1OC [Cisatracurium Besylate] | -3.12
11 | Fc1cc(-c2cccc3ncc(-c4cnn(C5CCNCC5)c4)nc23)cc(F)c1CN1CCOCC1 | -12.4
12 | CC(N)C12CC3CC(CC(C3)C1)C2 (stereo not drawn) [Rimantadine] | -0.509
13 | CN(CCOc1ccc(CC2SC(=O)NC2=O)cc1)c1ccccn1 (stereo not drawn) [Rosiglitazone] | -0.603
14 | OC(CCN1CCCCC1)(c1ccccc1)C1CCCCC1 (stereo not drawn) [Trihexyphenidyl hydrochloride] | -2.06
15 | N=C(N)N/N=C/c1c(Cl)cccc1Cl [Guanabenz acetate] | -1.55
16 | N=C(N)N/N=C/c1c(Cl)cccc1Cl [Guanabenz Acetate] | -0.8
17 | Cc1ccc2c(Cl)cc(Cl)c(O)c2n1 [Chlorquinaldol] | -12.5
18 | C[C@H](Oc1cc(-c2cnn(C3CCNCC3)c2)cnc1N)c1c(Cl)ccc(F)c1Cl [(S)-crizotinib] | -15.7
19 | CN(C)CCOC(=O)COc1ccc(Cl)cc1 [Centrophenoxine hydrochloride] | -1.85
20 | Brc1c(NC2=NCCN2)ccc2nccnc12 [Brimonidine Tartrate] | 1.64
21 | Brc1c(NC2=NCCN2)ccc2nccnc12 | -0.106
22 | Nc1cccc2c1CN(C1CCC(=O)NC1=O)C2=O (stereo not drawn) [Lenalidomide (CC-5013)] | -3.95
23 | NC(=S)N/N=C/c1ncccc1N [Triapine] | -11.7
24 | COc1ccc2[nH]c([S+]([O-])Cc3ncc(C)c(OC)c3C)nc2c1 (stereo not drawn) [Omeprazole] | 5.38
25 | O=C(Nc1ccc(-c2ccnc(Nc3ccc(N4CCOCC4)cc3)n2)cc1)C1CCCN1 (stereo not drawn) | -12.4
26 | CCS(=O)(=O)Nc1ccc2c(c1)/C(=C(/Nc1ccc(CN3CCCCC3)cc1)c1ccccc1)C(=O)N2 [Hesperadin] | -17.7

Row | SMILES | total cell number
27 | Cc1ccccc1N1C(=O)c2cc(S(N)(=O)=O)c(Cl)cc2NC1C (stereo not drawn) [Metolazone] | -1.3 ± 1.5
28 | CN(C)CCC(c1ccc(Br)cc1)c1ccccn1 (racemic) [(±)-Brompheniramine maleate] | -1.71
29 | Cc1cc(-n2c(=O)[nH]c(=O)n(C)c2=O)ccc1Oc1ccc(SC(F)(F)F)cc1 [Toltrazuril] | 0.165
30 | CCCn1c(=O)c2[nH]c(-c3ccc(S(=O)(=O)O)cc3)nc2n(CCC)c1=O [1,3-Dipropyl-8-p-sulfophenylxanthine] | -1.78
31 | [I-].[K+] [Potassium Iodide] | -1.15
32 | O=C1N(c2ccccc2)c2ccccc2C1(Cc1ccncc1)Cc1ccncc1 [Linopirdine] | -0.877
33 | O=C(NS(=O)(=O)c1ccc(Br)s1)c1ccc(Cl)cc1Cl [Tasisulam] | -1.99
34 | OCCOCCN1CCN(C(c2ccccc2)c2ccc(Cl)cc2)CC1 (stereo not drawn) [Hydroxyzine 2HCl] | 1.55
35 | COc1ccc(CNC(=O)Nc2ncc([N+](=O)[O-])s2)cc1 | 1.19
36 | Cc1nc(N)sc1-c1ccnc(Nc2ccc(N3CCOCC3)cc2)n1 | -22.6
37 | C[C@]12CC[C@@H]3c4ccc(O)cc4CC[C@H]3[C@@H]1C[C@@H](O)[C@@H]2O [Estriol] | -1.95
38 | C[C@@H]1CN(CC(=O)Nc2ccc3c(c2)Cc2cccc(-c4cc(=O)cc(N5CCOCC5)o4)c2S3)C[C@H](C)O1 | -10.9
39 | CCc1cccc2c3c([nH]c12)C(CC)(CC(=O)O)OCC3 (stereo not drawn) [Etodolac] | -0.872 ± 0.45
40 | O=CN(O)CCCP(=O)(O)O [Fosmidomycin sodium salt hydrate] | -1.12
41 | Cc1noc(NS(=O)(=O)c2ccc(N)cc2)c1C [Sulfisoxazole] | -1.12
42 | CCC[C@H](NC(=O)[C@@H]1[C@H]2CCC[C@H]2CN1C(=O)[C@@H](NC(=O)[C@@H](NC(=O)c1cnccn1)C1CCCCC1)C(C)(C)C)C(=O)C(=O)NC1CC1 [Telaprevir (VX-950)] | -2.19
43 | C=CC(=O)N1CCC[C@@H](n2nc(-c3ccc(Oc4ccccc4)cc3)c3c(N)ncnc32)C1 | -8.95
44 | CC(=O)N1CCN(CCOc2ccc(C3CCN(C4=Nn5c(nnc5C(F)(F)F)CC4)CC3)cc2)CC1 | 0.0683
45 | CC1=C(CC(=O)O)c2cc(F)ccc2/C1=C\c1ccc([S+](C)[O-])cc1 (stereo not drawn) [Sulindac] | -1.2 ± 0.33
46 | C=CC(=O)Nc1ccc2ncnc(Nc3ccc(OCc4cccc(F)c4)c(Cl)c3)c2c1 | -12.9
47 | NOCC(=O)O [O-(Carboxymethyl)hydroxylamine hemihydrochloride] | 1.52
48 | CCOC(=O)[C@H](CCc1ccccc1)N[C@@H](C)C(=O)N1CCC[C@H]1C(=O)O [Enalapril Maleate] | -1.54
49 | NC[C@@H]1O[C@H](c2ccccc2)Cc2c1ccc(O)c2O | -2.54
50 | CNC(=O)[C@H](Cc1ccccc1)NC(=O)[C@H](CC(C)C)[C@H](CSc1cccs1)C(=O)NO [Batimastat (BB-94)] | -10.5
51 | CNC(=O)Nc1ccc(-c2nc(N3CC4CCC(C3)O4)c3cnn(C4CCC5(CC4)OCCO5)c3n2)cc1 | -8.93
52 | CN1CC2c3ccccc3Oc3ccc(Cl)cc3C2C1 (stereo not drawn) [Asenapine] | -10.5

Row | SMILES | total cell number
53 | COC1=C2C[C@@H](C)C[C@H](OC)[C@H](O)[C@@H](C)/C=C(\C)[C@H](OC(N)=O)[C@@H](OC)/C=C\C=C(/C)C(=O)NC(=CC1=O)C2=O [Geldanamycin] | -12.3
54 | CCC(CC)CC1(C(=O)Nc2ccccc2SC(=O)C(C)C)CCCCC1 | -1.86
55 | CN1[C@@H](CC(=O)c2ccccc2)CCC[C@H]1C[C@H](O)c1ccccc1 [alpha-Lobeline hydrochloride] | -1.52
56 | Cn1cc(-c2ccc3nnc(C(F)(F)c4ccc5ncccc5c4)n3n2)cn1 | -3.9
57 | c1ccc2[nH]c(-c3cscn3)nc2c1 [Thiabendazole] | 0.92
58 | COc1cc(C(O)C(=O)O)ccc1O (racemic) [(±)-Vanillylmandelic acid] | -0.443
59 | CC(=O)C(C)=O [2,3-Butanedione] | -1.17
60 | CSc1nc(N)c2ncn([C@@H]3O[C@H](COP(=O)(O)OP(=O)(O)OP(=O)(O)O)[C@H](O)C3O)c2n1 (stereo partly drawn) [2-Methylthioadenosine triphosphate tetrasodium] | 1.81
61 | Cn1c(=O)cc(N2CCC[C@@H](N)C2)n(Cc2ccccc2C#N)c1=O [Alogliptin] | -1.27
62 | CC1(C)S[C@@H]2[C@H](NC(=O)[C@H](NC(=O)N3CCN(S(C)(=O)=O)C3=O)c3ccccc3)C(=O)N2[C@H]1C(=O)O [Mezlocillin Sodium] | 0.711
63 | CCCCCCCN(CC)CCCC(O)c1ccc(NS(C)(=O)=O)cc1 (stereo not drawn) [Ibutilide Fumarate] | 0.306
64 | Cc1nnc(C(C)C)n1C1C[C@H]2CC[C@@H](C1)N2CC[C@H](NC(=O)C1CCC(F)(F)CC1)c1ccccc1 (stereo in doubt) [Maraviroc] | -0.465 ± 0.011
65 | COc1cc(Nc2ncc(F)c(Nc3ccc4c(n3)N(COP(=O)(O)O)C(=O)C(C)(C)O4)n2)cc(OC)c1OC [Fostamatinib (R788)] | -11.3
66 | COc1ccc(-c2cc(=O)c3c(O)cc(O[C@@H]4O[C@H](CO[C@@H]5O[C@@H](C)[C@H](O)[C@@H](O)[C@H]5O)[C@@H](O)[C@H](O)[C@H]4O)cc3o2)cc1O [Diosmin] | -1.95
67 | O=C(Nc1ccc2c(c1)CCN(Cc1ncn[nH]1)C2)c1ccccc1-c1ccc(C(F)(F)F)cc1 | -0.98
68 | CCOC(=O)C1=C[C@]2(CC)CCCN3CCc4c(n1c1ccccc41)[C@@H]32 [Vinpocetine] | -1.4
69 | CC(C)c1cc(C(=O)N2Cc3ccc(CN4CCN(C)CC4)cc3C2)c(O)cc1O | -25.7
70 | Cc1cccc(CN2CCN(C(c3ccccc3)c3ccc(Cl)cc3)CC2)c1 (stereo not drawn) [Meclizine 2HCl] | -17.9
71 | CC(C)Cc1ccc(C(C)C(=O)O)cc1 (racemic) [(±)-Ibuprofen] | -0.452
72 | COc1cnc(NS(=O)(=O)c2ccc(N)cc2)nc1 [Sulfameter] | -2.94
73 | COc1cc(CCC(C)=O)ccc1O [Vanillylacetone] | 2.45
74 | O=NN(CCCl)C(=O)NC1CCCCC1 [Lomustine] | -4.15
75 | CC1CNCCN1S(=O)(=O)c1cccc2cnccc12 (stereo not drawn) | -1.12
76 | CNCCC(Oc1ccccc1OC)c1ccccc1 (stereo not drawn) [Nisoxetine hydrochloride] | -1.44
77 | CCCCCCCC/C=C\CCCCCCCC(=O)NCCc1ccc(O)c(O)c1 [N-Oleoyldopamine] | -10.6
78 | CCCCCCCCc1ccc(CCC(N)(CO)CO)cc1 [Fingolimod (FTY720) HCl] | -16.4
